In all, about 420,000 compounds went through this assay and about 64,000 (15%) were called active. The inconclusive results got no clear call from the source; some entries with a clear call stand among them for comparison. Calls come from the whole dose curve; as a rule, active = well fitted inhibition curve with a large enough effect; inconclusive = small, poorly fitted or top-dose-only effect; inactive = flat fitted curve, though single readings scatter. No potency is given beside an inconclusive call; the fits are too rough.
Assay: qHTS for Inhibitors of human tyrosyl-DNA phosphodiesterase 1 (TDP1): qHTS in cells in absence of CPT; note: nearly all actives have a fitted effect of over 55% in size
Details: DT40 Tdp1-/- hTDP1 cells, no CPT, ATP luminescence, 48 h; activity change, negative = growth inhibition: at 46.2 µM (top of the series) unless noted
Outline: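 A cellular qHTS used chicken DT40 cells lacking endogenous Tdp1 but carrying stably transfected human TDP1. Compounds were applied without camptothecin, and cell growth kinetics were judged by ATP-dependent luminescence after ≥48 hr.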
% is set by controls: 0 for no effect and ±100 for the full control effect; potency is the fitted concentration of half-maximal effect; tags give direction and shape of the fitted curve.

For O=C(O)C1CC=C(Cl)CC1C(=O)NCc1ccccc1 (configuration not stated), which Potency is on record?
The Potency was inconclusive [inhibitor, partial curve].

Which Potency does the source give for CCOC(=O)c1cnc(SCc2nc(N)nc(Nc3ccc(C)cc3)n2)nc1N here?
Its Potency is inconclusive [inhibitor, single point].

With CCOc1ccc(-c2nnn(CC(=O)N3CCCC(C)C3)n2)cc1 (configuration not stated) as the compound, how does the “activity change, negative = growth inhibition” value read?
The value was inactive: -2.92%.

For COc1ccc(CCNC(=O)CCc2c(C)nc3cc(-c4ccc(Cl)cc4)nn3c2C)c(OC)c1, which Potency is on record?
The Potency was inconclusive [inhibitor, full curve, poor fit].

Which Potency does the source give for O=c1c2[nH]c3ccc(F)cc3c2nc2n1CCS2 here?
The Potency was inconclusive [inhibitor, partial curve].

For Cc1noc(/C=C/c2ccccc2F)c1S(=O)(=O)N1CCC(C(=O)NCc2ccco2)CC1, which Potency is on record?
Its Potency is inconclusive [inhibitor, single point].

Which Potency does the source give for CN(C)c1ccc(NC(=O)c2cn(-c3ccccc3)nc2-c2cccs2)cc1 here?
Its Potency is inconclusive [inhibitor, single point].

For COc1ccc(S(=O)(=O)N2CCCCC2)cc1NC(=O)Cc1c[nH]c2ccccc12, which Potency is on record?
The Potency was active: 14.6 µM.

With CCC(CC)C(C(=O)NCc1ccccc1)N(C)Cc1ccc(Cl)c(Cl)c1 (configuration not stated) as the compound, how does the Potency read?
The Potency was active: 14.6 µM.

For CCOC(=O)c1c(C)[nH]c(C(=O)OCC(=O)N2c3ccccc3CC2C)c1C (configuration not stated), which Potency is on record?
Its Potency is active: 18.4 µM.

For O=C(Nc1ccc(Cl)cc1Cl)[C@@H]1CC=C[C@@H]2CCN(C3CC3)C(=O)[C@@H]21, which Potency is on record?
The Potency was inconclusive [inhibitor, partial curve].

With COc1ccc(C(C(=O)Nc2ccc(C(C)C)cc2)N(C)C(=O)c2ccc(=O)[nH]c2)cc1 (configuration not stated) as the compound, how does the Potency read?
The Potency was inconclusive [inhibitor, partial curve].

For CCOC(=O)c1ccccc1NC(=O)N1CCCn2nc(C)cc21, which Potency is on record?
Its Potency is inconclusive [inhibitor, single point].

With Cc1ccc(S(=O)(=O)Nc2ccccc2F)cc1C(=O)NNC(=O)c1ccccc1O as the compound, how does the activity change, negative = growth inhibition read?
The activity change, negative = growth inhibition was inconclusive: -30.3% [inhibitor].

With CCC(=NCCc1c(C)[nH]c2ccc(C)cc12)C1=C(O)CC(c2ccccc2)CC1=O (configuration not stated) as the compound, how does the Potency read?
Its Potency is active: 0.82 µM.

With COc1ccc(OC)c(Nc2ncnc3c2cnn3-c2cccc(C)c2)c1 as the compound, how does the Potency read?
The Potency was active: 4.61 µM.

Which Potency does the source give for CN(Cc1ccccc1N1CCCC1)C(=O)c1cc2ccccc2o1 here?
The Potency was inconclusive [inhibitor, single point].

For NC(=S)NN=C1CCCC(C(F)(F)F)C1 (configuration not stated), which Potency is on record?
Its Potency is active: 23.1 µM.

Which Potency does the source give for CC(C)N(Cc1nnc(-c2ccccc2Cl)o1)C(=O)COc1cccc(Cl)c1 here?
Its Potency is inconclusive [inhibitor, single point].

Which “activity change, negative = growth inhibition” value does the source give for CCN(CC)C(=O)CSc1nc2ccccc2c(=O)n1CCC(=O)NCCc1ccc(OC)c(OC)c1 here?
Its value is inactive: -25.9%.

With O=C(OCC1OC(n2cc(Br)c(=O)[nH]c2=O)C(Br)C1O)c1ccccc1 (configuration not stated) as the compound, how does the Potency read?
Its Potency is inconclusive [inhibitor, single point].

With Cc1ccc(C2=NN(C(=O)c3cccs3)C(c3ccccc3O)C2)cc1 (configuration not stated) as the compound, how does the Potency read?
The Potency was inconclusive [inhibitor, single point].

With CCOC(=O)c1cnn(-c2cccc(Cl)c2)c1N as the compound, how does the “activity change, negative = growth inhibition” value read?
The value was inactive: 10.2%.

For Cc1cc2ccccc2n1CCNC(=O)COc1ccc2ccccc2c1, which Potency is on record?
Its Potency is inconclusive [inhibitor, single point].

Which “activity change, negative = growth inhibition” value does the source give for CC1(C)C(=O)Nc2ccccc2N1C(=O)COC(=O)c1cccnc1Cl here?
The value was inactive: 2.02%.

For COc1ccc(C(=O)Nc2cccc(OCc3cc(=O)n4c5c(sc4n3)CCCC5)c2)cc1OC, which Potency is on record?
Its Potency is inconclusive [inhibitor, full curve].

For Cc1ccc2c(CC(=O)NNC(=O)c3ccccc3O)coc2c1, which Potency is on record?
Its Potency is active: 25.9 µM.

For NC(=O)CC(NC(=O)c1ccccc1)c1ccc(N2CCC(N3CCCC3)CC2)c([N+](=O)[O-])c1 (configuration not stated), which “activity change, negative = growth inhibition” value is on record?
The value was inactive: -0.232%.

Which “activity change, negative = growth inhibition” value does the source give for C/C=C/c1c(F)c(F)c(Oc2ccc(C(=O)O)cc2)c(F)c1F here?
The value was inactive: 2.46%.

For CC(=O)NC(c1ccc(F)c(F)c1)c1nc(-c2ccccc2)cs1 (configuration not stated), which Potency is on record?
Its Potency is inconclusive [inhibitor, single point].

Which Potency does the source give for Cc1cc(C)cc(N2C(=O)CSC23C(=O)N(CC(=O)NC2CCCCC2)c2ccccc23)c1 (configuration not stated) here?
The Potency was inconclusive [inhibitor, single point].

Which Potency does the source give for OC1(c2cccnc2)CCN(Cc2ccc3c(c2)CN(Cc2cccc(C(F)(F)F)c2)CCO3)CC1 here?
The Potency was active: 25.9 µM.

Which “activity change, negative = growth inhibition” value does the source give for O=C(CN1C(=O)NC2(CCSC2)C1=O)N1CCN(c2ccc(F)cc2)CC1 (configuration not stated) here?
Its value is inactive: -10.2%.

With CCOc1ccc2[nH]c3c(N4CCN(C(=O)c5ccco5)CC4)ncnc3c2c1 as the compound, how does the Potency read?
Its Potency is active: 13 µM.

With CCOc1ccccc1NC(=O)CSc1nnc(-c2ccco2)o1 as the compound, how does the Potency read?
The Potency was inconclusive [inhibitor, single point].

For S=c1[nH]nc(CCSCc2ccccc2)n1-c1ccccc1, which Potency is on record?
Its Potency is inconclusive [inhibitor, single point].

With COc1ccccc1NC(=S)N/N=C1\CC(C)(C)Oc2ccc(O)cc21 as the compound, how does the Potency read?
Its Potency is inconclusive [inhibitor, single point].

For CCc1ccc(NC(=O)Cn2c(=O)n(Cc3ccc(C)cc3)c(=O)c3cccnc32)cc1, which “activity change, negative = growth inhibition” value is on record?
The value was inactive: -11.1%.

With CSc1nc(NCC(C)C)c2c3c(sc2n1)CN(C)CC3 as the compound, how does the Potency read?
Its Potency is inconclusive [inhibitor, single point].

For Cc1ccccc1N1CCN(C2CCCN(C(=O)c3snnc3C)C2)CC1 (configuration not stated), which “activity change, negative = growth inhibition” value is on record?
Its value is inactive: 3.39%.

With Cc1cc(N(CCO)CCO)ccc1C(c1ccc(N(CCO)CCO)cc1C)c1ccccc1Cl as the compound, how does the “activity change, negative = growth inhibition” value read?
The value was inactive: -6.9%.

With CCOC(=O)c1c(CSc2ccccc2)n(C)c2ccc(O)c(CN3CCOCC3)c12 as the compound, how does the Potency read?
Its Potency is inconclusive [inhibitor, single point].

Which Potency does the source give for CC(=O)c1ccc(N2CCN(C(=O)/C=C/c3ccc(S(=O)(=O)NCc4ccco4)cc3)CC2)cc1 here?
The Potency was active: 20.6 µM.

With CN(C)C1(CNC(=O)C2CCC(=O)N(CCc3ccc(Cl)cc3)C2)CCCCC1 (configuration not stated) as the compound, how does the “activity change, negative = growth inhibition” value read?
The value was inactive: -3.6%.

With Cc1cc(C)nc(SCCn2c(N3CCOCC3)nc3c2c(=O)[nH]c(=O)n3C)n1 as the compound, how does the “activity change, negative = growth inhibition” value read?
The value was inactive: 6.64%.

For COc1ccccc1NC(=O)CN1CCN(CC(=O)Nc2ccc(F)cc2)CC1, which activity change, negative = growth inhibition is on record?
The activity change, negative = growth inhibition was inconclusive: -35% [inhibitor].

For COc1cccc(C(=O)Nc2cccnc2)c1, which “activity change, negative = growth inhibition” value is on record?
The value was inactive: -18.5%.

For Cc1ccccc1C(=O)Nc1nnc(S(=O)(=O)N2CCc3ccccc32)s1, which Potency is on record?
Its Potency is inconclusive [inhibitor, single point].

For COc1ccc([N+](=O)[O-])cc1N(CC(=O)NCCSc1ccc(C)cc1)S(C)(=O)=O, which “activity change, negative = growth inhibition” value is on record?
Its value is inactive: -24.4%.

With N#CC1=C(N)Oc2n[nH]c(-c3cccs3)c2C1C1C=CCCC1 (configuration not stated) as the compound, how does the “activity change, negative = growth inhibition” value read?
The value was inactive: -20.4%.

Which Potency does the source give for CC(=O)N1CCCc2cc(S(=O)(=O)N3CCC(C(=O)N(C)C4CCCCC4)CC3)ccc21 here?
Its Potency is active: 23.1 µM.

Which activity change, negative = growth inhibition does the source give for CCOc1cc(C2C(C(=O)OC)=C(C)N=C3SC(C)C(=O)N32)ccc1OC(C)=O (configuration not stated) here?
The activity change, negative = growth inhibition was inconclusive: -30% [inhibitor].

With Cc1csc(NC(=O)CSc2nnc(-c3ccncc3)o2)n1 as the compound, how does the Potency read?
The Potency was inconclusive [inhibitor, single point].

For CN(c1ccc(C(=O)N2CCCCC2)cc1)S(C)(=O)=O, which Potency is on record?
Its Potency is inconclusive [inhibitor, partial curve, poor fit].

Which Potency does the source give for Cc1ccc(C)c(OCCn2c(=O)c3c(ncn3C3CCCC3)n(Cc3ccccc3)c2=O)c1 here?
The Potency was inconclusive [inhibitor, single point].

With COc1cccc(C(=O)N2CCN(C(=O)COc3ccc4ccccc4c3)CC2)c1 as the compound, how does the Potency read?
The Potency was inconclusive [inhibitor, single point].

For COc1ccccc1NS(=O)(=O)c1cccc(C(=O)N/N=C/c2cn(-c3ccccc3)nc2-c2ccccc2)c1, which Potency is on record?
The Potency was inconclusive [inhibitor, single point].

For O=C(N=Nc1c(O)[nH]c2ccccc12)c1ccccc1NS(=O)(=O)c1cccs1, which “activity change, negative = growth inhibition” value is on record?
The value was inactive: -29.2%.

Which “activity change, negative = growth inhibition” value does the source give for Cc1ccc(NC(=O)CN(C)C(=O)COc2cc(F)ccc2[N+](=O)[O-])cc1 here?
Its value is inactive: -13%.

For CC1=C(C(=O)Nc2ccccc2C)C2(CCCC2)C(C(N)=O)C(=O)N1 (configuration not stated), which Potency is on record?
Its Potency is inconclusive [inhibitor, partial curve, poor fit].

For O=C1CCc2cc(S(=O)(=O)Nc3cccc(F)c3)cc3c2N1CC3, which “activity change, negative = growth inhibition” value is on record?
Its value is inactive: -25%.

Which Potency does the source give for COc1cc(C(=O)Nc2ccccc2N2CCCCC2)cc(OC)c1OC here?
The Potency was active: 20.6 µM.

For COc1ccc(S(=O)(=O)NCC2CCCN(Cc3ccccc3C)C2)cc1 (configuration not stated), which “activity change, negative = growth inhibition” value is on record?
The value was inactive: 9.86%.

For COc1cc(/C=N/NC(=O)c2cc(-c3cccn3C)n[nH]2)cc(OC)c1OC, which Potency is on record?
The Potency was active: 20.6 µM.

With S=C(NCCN1CCOCC1)Nc1ccc(Cl)c(Cl)c1 as the compound, how does the “activity change, negative = growth inhibition” value read?
The value was inactive: 1.23%.

With COc1cccc(N2CCN(c3cnc4ccccc4n3)CC2)c1 as the compound, how does the Potency read?
The Potency was inconclusive [inhibitor, single point].

For CN(C)C(=O)CCc1ccc2c3c([nH]c2c1)[C@]1(CCC2CCCC2)[C@@H](C(=O)N2CCOCC2)C[C@H](CC(=O)NCCC2=CCCCC2)C(=O)N1CC3, which Potency is on record?
Its Potency is active: 23.1 µM.

Which “activity change, negative = growth inhibition” value does the source give for CCCCOc1ccc(-c2ncc(C(=O)OCC)c(N)n2)cc1 here?
Its value is inactive: -18.9%.

With COc1ccc(OCCSc2nnc(CCNC(=O)c3ccc(Cl)c(Cl)c3)n2C)cc1 as the compound, how does the Potency read?
The Potency was inconclusive [inhibitor, single point].

For C=C(C)COc1ccc(-c2ncnc(C(F)(F)F)c2-c2ccccc2)c(O)c1, which Potency is on record?
The Potency was inconclusive [inhibitor, single point].

For Cc1ccccc1C1c2[nH]c3ccccc3c2CCN1C(=O)c1ccc(=O)n(C)n1 (configuration not stated), which Potency is on record?
Its Potency is inconclusive [inhibitor, single point].

With CC(C)OC(=O)NCCOC(=O)Nc1ccccc1Cl as the compound, how does the “activity change, negative = growth inhibition” value read?
Its value is inactive: -1.4%.
